Results: the supplement of paper PMC3334620
The full ranking holds about 33,000 sequences; the median of “E-score (-0.5 to 0.5)” is about -0.035, and the highest 2% start at about 0.34. Some of the results follow.

target: T1, Mot3 (UniProt P54785); test: PBM E-score (8-mer binding enrichment) (E-score (-0.5 to 0.5)); higher = stronger / more preferred TF binding; most listed sequences are background and not binding sites; conditions: protein concentration: 200 nM; construct: GST-full length
T1 sequence: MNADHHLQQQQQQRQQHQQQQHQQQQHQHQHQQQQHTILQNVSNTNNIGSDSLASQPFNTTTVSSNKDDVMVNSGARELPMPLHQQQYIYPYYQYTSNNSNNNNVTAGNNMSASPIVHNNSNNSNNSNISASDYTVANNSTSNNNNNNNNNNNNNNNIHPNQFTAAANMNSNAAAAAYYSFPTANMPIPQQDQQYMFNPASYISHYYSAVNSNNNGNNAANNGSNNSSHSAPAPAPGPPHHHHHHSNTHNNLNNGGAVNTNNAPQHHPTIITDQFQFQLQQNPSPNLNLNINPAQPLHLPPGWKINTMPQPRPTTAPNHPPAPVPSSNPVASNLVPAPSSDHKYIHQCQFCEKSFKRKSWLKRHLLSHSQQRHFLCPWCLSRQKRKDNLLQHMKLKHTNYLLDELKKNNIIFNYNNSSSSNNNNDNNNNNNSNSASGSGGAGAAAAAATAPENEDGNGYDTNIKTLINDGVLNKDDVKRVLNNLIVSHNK
Procedure, shortened: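 E-scores (a modified Wilcoxon-Mann-Whitney statistic) were assigned by the Universal PBM Analysis Suite to every ungapped eight-base word pooled with its reverse complement. The input came from universal all-10-mer Agilent arrays made double-stranded by primer extension and probed with GST-tagged yeast transcription factors at about 100-200 nM. Fluorescent anti-GST detected bound protein, and masliner normalised the scans.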

Sequence | PBM E-score
AAGGTAAG | 0.27
GTGACTTA | 0.127
ACGCCTGA | 0.207
CATTTGGC | 0.0177
GACGGCAA | 0.00196
CGCAAGCC | 0.0673
ACTTTCCT | 0.383
ATGACTTC | -0.073
CCCAATTC | 0.143
AGTAAGGA | -0.00567
TAACCCAA | 0.0504
CGTCGAGC | -0.0948
TCATGGCA | -0.284
GGCAGGGA | -0.158
ACGCGACC | 0.112
CAATCGCG | -0.0227
CATTATAG | 0.0628
GCAGTTAC | 0.0241
ACCGTTAC | -0.0628
GACGCCTC | 0.0387
GGGAATTA | 0.098
CACTCTAA | -0.144
CGTAGCTC | -0.0378
AAGAAGGC | 0.193
CATTTAAG | -0.00232

Sequence | PBM E-score
GTAAAGAA | 0.279
CGAATGAC | 0.186
CCTCATCA | 0.0473
TCGATTCA | 0.0298
ATACGAAT | 0.0856
CCCACGCC | -0.154
ATCTCTCG | -0.0893
GTTACAGA | -0.0831
GACCTTGC | -0.156
GCATAGCA | 0.0235
AAGTTTAT | 0.0421
AGGTGCAC | -0.0519
AAACTCCT | -0.183
AATATAGA | 0.114
ACAGAAAA | 0.0442
CCGCAAGA | -0.238
AGATCATA | 0.11
CACCCATG | 0.0598
CACTACTA | -0.0102
ATTCGCAA | 0.0104
AAAGGCAA | 0.486
GTATCCCA | -0.0988
GGGGTCTA | -0.0481
ATCCTATA | 0.0259
ATGTCCAC | -0.0166

Sequence | PBM E-score
GACCGTAC | -0.159
CACTGAAA | 0.107
CAAGTCCC | -0.248
GTGGGACA | -0.0726
ACGTCACC | -0.127
CGATAATC | -0.267
GATTACAC | 0.419
GCAAGGGA | -0.155
ATATTATC | -0.0118
ACCTTCAC | 0.175
AGCGGGTG | -0.109
CTAGGCCC | -0.21
CATAGCCA | -0.201
AGTCGCTA | 0.0503
GTCGCCTA | 0.106
AGCGAGCA | -0.108
CGAGCCAA | -0.107
CCACGGAC | -0.286
ACACCAGG | -0.057
AAATCAAC | 0.0454
CTCGCTCC | -0.139
ACGCGGGC | 0.128
AATACGCA | 0.275
AGGTATTC | 0.21
GTTATGCA | 0.0433

Sequence | PBM E-score
AAAAAACA | 0.252
ACCCGGAC | -0.146
ATTATCTA | 0.193
GACATGTC | 0.191
GGATCCGA | -0.291
GGCTACCC | -0.196
ATCATACC | 0.0808
GAAGGCGA | -0.0248
CCCGTGTA | 0.376
CAGAGCGG | -0.172
AGTTGTTG | 0.197
CCTGCCTA | 0.244
ATATACTA | 0.0627
TCAGTCGA | -0.176
CCTGAGAA | 0.173
AAGAAACG | 0.0311
CCCGGAAC | -0.206
AACTGTAA | 0.127
GAGGCCGC | -0.142
CTACCATC | -0.12
AGAGCTTA | -0.126
ATCTCATA | -0.0395
CGCATTAC | 0.17
GCTGCACC | -0.222
CGGACCCG | -0.308

Sequence | PBM E-score
ACCTCATC | -0.0389
CGGGCTTA | -0.182
CGGTTTTC | -0.134
ATCGACAT | 0.285
ATGTAGGA | 0.158
AGTATATC | -0.0374
AAAAGAGC | -0.0689
CGTAACTA | 0.111
CGTTCGGC | -0.256
GCAAAACA | 0.0388
GTCATTCA | -0.067
GTACGTAC | 0.157
CCCTCGAC | -0.298
CGCGGGGA | 0.0397
ACCCGTAA | -0.0263
AATACTAT | -0.0357
CGTCGGCC | -0.188
GACTTGGC | -0.292
GAGCCTTA | 0.185
ATGACAAG | 0.0835
CCCCCTCG | -0.338
GTCTGCTA | 0.0638
ATAGAATA | 0.148
AAGGAGGC | 0.0693
CAAGACCA | -0.0228

Sequence | PBM E-score
ATTATGGG | -0.0982
CATGACGC | 0.0894
ACTTCTGC | 0.0157
ATCTATCA | -0.00093
CTGCAACA | 0.0762
CCTGTGTA | 0.357
AAGATATA | 0.0835
AGGGTGTC | -0.152
CAGGAGAG | -0.299
CCAAGAGG | -0.324
AGAGCAAA | -0.0297
AGAGATAC | 0.0499
CGCCAAGC | -0.164
AACAGCAA | 0.0647
ACCTCGCA | -0.0135
AACCGTGA | 0.0392
ACACACGC | 0.174
ACTTGTTG | 0.171
CTTACCCC | -0.299
CTCAGAAA | 0.0867
CGGCTCTA | -0.023
ACCAATAT | 0.0303
AAGGAGTG | 0.037
ATGTACCG | 0.121
CAGACTAA | 0.0199

Sequence | PBM E-score
AAGAGACG | -0.115
AGTACGCA | 0.11
CGGCCATA | -0.286
ACGCAATG | 0.23
CAGCATAG | 0.0625
CAGAGTCG | -0.176
AGGTCTTA | -0.206
ATGTAAAG | 0.411
CGCCATAG | -0.062
ATAGCACC | -0.18
GAGACCTC | -0.165
CTCGGCGC | 0.0632
CACGGTGA | 0.0322
ACGAAGCG | -0.237
ATCGACGA | -0.231
CCGACTAC | -0.101
CACCACTG | -0.157
CTTGCGCC | 0.00463
CAGGTCCA | 0.0178
GTTCGTGA | -0.225
AAGAGGCC | -0.401
AGCGCCCT | -0.194
